Source: PubChem BioAssay AID504466 (National Center for Advancing Translational Sciences (NCATS), 2011)
Hit rate of the full screen: of about 330,000 compounds, about 4,200 (1.3%) were called active. This list was built around the results that the source calls inconclusive (neither active nor inactive); the mix of calls is not that of the screen. Calls come from the whole dose curve; as a rule, active = well fitted activation curve with a large enough effect; inconclusive = small, poorly fitted or top-dose-only effect; inactive = no such curve, though single readings can be large or run the other way. Potencies beside an inconclusive call are fits to weak or partial responses and may not hold up.

Assay: qHTS screen for small molecules that induce genotoxicity in human embryonic kidney (HEK293T) cells expressing luciferase-tagged ELG1; note: nearly all actives have a fitted effect of over 60% in size; for activity change, positive = activation: % of control where 0% means no effect
Settings: HEK293T ELG1-luciferase reporter, luminescence, 16 h; series mostly up to 46 µM; activity change, positive = activation: at the top concentration
How it was run: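 DMSO vehicle served as control against compound-treated ELG1-luciferase HEK293T cells; exposure lasted 16 hr at 37 °C and 5% CO2, followed by ONE-Glo luminescence detection after 30 min.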
Potency is the fitted concentration of half-maximal effect; tags give direction and shape of the fitted curve.

Structure (SMILES)	Potency	activity change, positive = activation
COc1cc(C2NC(=O)C(C#N)=C(S)N2c2ccc(C)cc2)ccc1OC(C)C (configuration not stated)	inconclusive: 0.0052 µM [activator, full curve, poor fit]	
COc1cc(NC(=O)c2ccc(Cl)cc2)c2ncccc2c1		inactive: 0.756%
COc1cc(/C=N/NC(=O)CCn2nnc3ccccc32)ccc1O		inactive: 3.72%
Cc1cc(C(=O)N/N=C/c2ccco2)n[nH]1		inactive: 14.4%
COc1cc(-c2cc(C(=O)NCc3ccc(S(N)(=O)=O)cc3)c3ccccc3n2)cc(OC)c1OC		inactive: -19.5%
Cc1ccc(NC(=O)NCc2ccccn2)cc1	inconclusive: 25.9 µM [activator, partial curve, poor fit]	
O=C(Nc1nc2ccc(Cl)cc2s1)c1ccco1	inconclusive: 0.731 µM [activator, full curve]	
Cc1sc(C(C2C(=O)CC(C)(C)CC2=O)C2C(=O)CC(C)(C)CC2=O)cc1[N+](=O)[O-]	inconclusive: 29.1 µM [activator, single point]	
CCN(CC)S(=O)(=O)c1ccc(N2CCOCC2)c(NC(=O)c2ccc3ccccc3c2)c1		inactive: -1.78%
COc1cccc2c1OCC(C(=O)Nc1nccs1)=C2	inconclusive: 2.59 µM [activator, full curve]	
COc1ccc(C2(c3ccc(OC)cc3)NC(=O)N(CC(=O)N(C)c3ccccc3)C2=O)cc1	inconclusive: 32.6 µM [activator, partial curve, poor fit]	
COc1ccc(-c2ccc(-c3nnn(CC(=O)N4CCOCC4)n3)cc2)cc1	inconclusive: 7.31 µM [activator, partial curve, poor fit]	
O=C(O)c1ccc(N/N=C/C=C/c2ccccc2)cc1	inconclusive: 3.66 µM [activator, partial curve, poor fit]	
CCNc1cc2n(c(=O)n1)CCc1cc(OC)c(OC)cc1-2	inconclusive: 25.9 µM [activator, partial curve, poor fit]	
CN(C)C=Nc1ccc2nn(-c3ccccc3)nc2c1	inconclusive: 8.2 µM [activator, partial curve]	
Cc1ccc(C(=O)Nc2ccc3c(c2)nc(CCNC(=O)c2ccco2)n3C)cc1	inconclusive: 5.8 µM [activator, single point]	
CCN(CC)CCC#CC1(O)c2ccccc2-c2ccccc21		inactive: -7.75%
COc1ccc(S(=O)(=O)N2CCN(c3ccc(C)cc3C)CC2)cc1OC	inconclusive: 25.9 µM [activator, single point]	
O=C(NCc1ccc2c(c1)OCO2)c1cccc(F)c1		inactive: -3.96%
CC(OC(=O)CCOc1ccccc1)C(=O)NC1CC1 (configuration not stated)		inactive: 5.96%
COc1ccc(-c2nnc(SCC(=O)N3CCc4ccccc4C3)o2)cc1	inconclusive: 4.61 µM [activator, full curve]	
Cc1cc(C)c2nc(-c3ccccn3)cc(C(=O)NCCc3ccc(S(N)(=O)=O)cc3)c2c1	inconclusive: 29.1 µM [activator, single point]	
COc1ccccc1/C=C\C=N\NC(=O)c1ccco1	inconclusive: 18.3 µM [activator, partial curve, poor fit]	
COC(=O)N1CCN(c2ccc(C(C)=O)cc2)CC1	inconclusive: 23.1 µM [activator, partial curve, poor fit]	

Structure (SMILES)	Potency	activity change, positive = activation
COc1cccc2nc3cc(C)c(C)cc3nc12	active: 1.46 µM	
Cc1ccc(-n2cc(C(=O)c3ccc(F)cc3)nn2)cc1Cl	inconclusive: 1.3 µM [activator, full curve]	
CCC(c1nc2ccccc2c(=O)n1-c1nc2ccccc2s1)N1C(=O)c2ccccc2C1=O (configuration not stated)		inactive: 3.58%
Fc1ccc2cc(CCO[C@H]3CCCCO3)ncc2c1	inconclusive: 2.06 µM [activator, full curve]	
COC(=O)c1ccc(N2CCC(C)CC2)c(N)c1	active: 18.4 µM	
O=C(Cn1c(C(F)(F)F)nc2ccccc21)N=Nc1c(O)[nH]c2ccc(Br)cc12	inconclusive: 29.1 µM [activator, partial curve, poor fit]	
Cc1cc(Cl)c2oc(C(=O)N(CCO)Cc3ccccc3)c(C)c2c1	inconclusive: 11.6 µM [activator, partial curve, poor fit]	
CC1(C)SC(=S)N(NC(=O)Nc2ccccc2)C1N(O)C(=O)Nc1ccccc1 (configuration not stated)		inactive: -0.851%
CCOC(=O)c1c(NC(=O)CN2C(=O)NC3(CCCCC3C)C2=O)sc(C)c1CC (configuration not stated)	inconclusive: 23.1 µM [activator, single point]	
Fc1ccccc1COc1ccc(/C=N/n2cnnc2)cc1		inactive: 2.93%
Nc1ccc(-c2nc3ccc(C(=O)O)cc3s2)cc1	inconclusive: 0.0046 µM [activator, full curve, poor fit]	
Cc1cccc2sc(N(CCCN(C)C)C(=O)c3ccc(S(=O)(=O)N4CCc5ccccc5C4)cc3)nc12	inconclusive: 29.1 µM [activator, single point]	
O=C(COc1cccc(F)c1)Nc1nc(-c2ccncc2)cs1		inactive: -2.68%
Cc1ccc(-n2nnc(-c3ccnc4ccccc34)n2)cc1	active: 13 µM	
Cc1ccc(NC(=O)c2cc3c(s2)CCCC3)cc1	inconclusive: 5.8 µM [activator, partial curve]	
O=C(Nc1nnc(Cc2ccccc2)s1)c1cccs1	inconclusive: 16.4 µM [activator, partial curve]	
Cc1ccc(OCCN2C(=O)c3ccccc3C2=O)cc1	inconclusive: 18.4 µM [activator, single point]	
O=S(=O)(c1ccc2ccccc2c1)N1CCN(CCO)CC1		inactive: 1.87%
CC(/C=C/c1ccccc1)=N/NC(=O)CNC(=O)c1ccccc1F	inconclusive: 29.1 µM [activator, single point]	
CCc1ccccc1OCC(=O)Nc1ccc2c(c1)OCCO2	inconclusive: 14.6 µM [activator, partial curve]	
CCOc1ccc(NC(=O)CSc2ncn[nH]2)cc1		inactive: 10.6%
CC(=O)OCC(=O)[C@@]1(O)CC[C@H]2[C@@H]3CCC4=CC(=O)CC[C@]4(C)[C@H]3[C@@H](O)C[C@@]21C	inconclusive: 0.82 µM [activator, partial curve, poor fit]	
O=C(COC(=O)C1CC2CCCC(C1)C2=O)NNC(=O)c1ccccc1Br (configuration not stated)		inactive: 1.84%
CCC(=O)Nc1ccc2c(c1)ncn2-c1ccccc1C		inactive: 4.14%

Structure (SMILES)	Potency	activity change, positive = activation
Cc1csc(NC(=O)c2ccco2)n1		inactive: -0.89%
COc1ccc(C2(C(=O)c3ccccc3)C(=O)c3ccccc3C2=O)cc1	inconclusive: 20.6 µM [activator, partial curve]	
CC(=O)c1ccc(NC(=O)C(C)OC(=O)/C=C/c2ccco2)cc1 (configuration not stated)	inconclusive: 29.1 µM [activator, partial curve, poor fit]	
CC1CCN(c2ccc3nnc(CCC(=O)Nc4cc(F)ccc4F)n3n2)CC1		inactive: 0.79%
Cc1ccccc1-c1nc2cc(NC(=O)C3CC3)ccc2o1	active: 4.61 µM	
COc1ccc(NC(=O)c2cc3ccccc3o2)cn1	inconclusive: 16.4 µM [activator, partial curve]	
CN(C(=O)CC1C(=O)NCCN1Cc1ccc(F)cc1Cl)C1CCCCC1 (configuration not stated)	inconclusive: 29.1 µM [activator, partial curve, poor fit]	
Clc1ccc(OCc2nc3ccccc3[nH]2)cc1	inconclusive: 2.31 µM [activator, partial curve, poor fit]	
C/C(=N\NC(=O)c1ccccc1N)c1ccc(NC(=O)Cc2ccccc2)cc1	inconclusive: 20.6 µM [activator, single point]	
CCc1cc(C(=O)NNC(=S)Nc2ccccc2C)cs1	inconclusive: 4.11 µM [activator, partial curve, poor fit]	
CCCS(=O)(=O)n1nc(-c2ccc(OC)cc2)cc1N	inconclusive: 32.6 µM [activator, partial curve, poor fit]	
COc1ccccc1CNC(=O)c1ccccc1OCc1ccc(F)cc1		inactive: -4.53%
COc1cccc(CNC(=O)c2ccc(C)c(NC3=NC4CS(=O)(=O)CC4S3)c2)c1 (configuration not stated)		inactive: 6.1%
O=C(O)C1C2C=CC(C2)C1C(=O)OCc1ccccc1 (configuration not stated)		inactive: 1.29%
COc1ccc(/C=C2/SC(=O)N(CCC(=O)Nc3ccccc3)C2=O)cc1OC	inconclusive: 23.1 µM [activator, partial curve, poor fit]	
NC(=O)C1CC(=O)N(c2ccc(OCc3ccc(Cl)cc3)cc2)C1 (configuration not stated)	inconclusive: 2.31 µM [activator, partial curve]	
Cc1occc1C(=O)Nc1cc(C(C)(C)C)on1	active: 5.17 µM	
COc1cccc(C(=O)N/N=C/c2ccc(OC)c(COc3ccccc3C(N)=O)c2)c1	inconclusive: 16.4 µM [activator, partial curve, poor fit]	
COc1ccc2c(C(=O)c3ccc(C)cc3)n(Cc3ccc(C(N)=O)cc3)[n+]([O-])c2c1	inconclusive: 2.06 µM [activator, full curve]	
O=c1[nH]c2ccccc2nc1/C=C(\O)C1CC1		inactive: 5.8%
CCNC(=S)N/N=C/c1sc(N2CCCCC2)nc1-c1cccs1	inconclusive: 6.51 µM [activator, partial curve, poor fit]	
COc1ccc(OC)c(C(C[N+](=O)[O-])c2c(C)cc3ccccn23)c1 (configuration not stated)	inconclusive: 29.1 µM [activator, single point]	
CCC(=O)c1ccc(OCC(O)Cn2c(C)nc3ccccc32)cc1 (configuration not stated)	inconclusive: 8.2 µM [activator, partial curve]	
COc1cc(C(=O)Nc2ccc3c(c2)OCCO3)ccc1OC(C)C	inconclusive: 10.3 µM [activator, partial curve]	
